PMC9911399, “Two distinct binding modes provide the RNA-binding protein RbFox with extraordinary sequence specificity”
Where a chain is given by its changes, count along the chain named. Some of the results follow.

T1: RBFOX1 RRM RbFoxmut (Fox-RRM*) (Homo sapiens, UniProt Q9NWB1 109-208, R118D;E147R;N151S;E152T)
T1 sequence: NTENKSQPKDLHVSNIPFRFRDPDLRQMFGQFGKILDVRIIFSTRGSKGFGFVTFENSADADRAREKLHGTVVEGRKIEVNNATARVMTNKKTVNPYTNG

B1: UUGGGCG (DNA:RNA)
RNA: GGGAGACCGGAAUUCAGAUUGUCCUUGGGCGUUAAAUCCCGUCGUAGCCACCA
DNA 1: CAATCTGAATTCCGGTCTCCC
DNA 2: TGGTGGCTACGACGGGATT
B2: UCGUUAC (DNA:RNA)
RNA: B1 RNA with U26C, G28U, G29U, C30A, G31C
DNA 1: CAATCTGAATTCCGGTCTCCC
DNA 2: TGGTGGCTACGACGGGATT
B3: GUACGUC (DNA:RNA)
RNA: B1 RNA with U25G, G27A, G28C, C30U, G31C
DNA 1: CAATCTGAATTCCGGTCTCCC
DNA 2: TGGTGGCTACGACGGGATT
B4: ACCUCCA (DNA:RNA)
RNA: B1 RNA with U25A, U26C, G27C, G28U, G29C, G31A
DNA 1: CAATCTGAATTCCGGTCTCCC
DNA 2: TGGTGGCTACGACGGGATT
B5: CUAAACA (DNA:RNA)
RNA: B1 RNA with U25C, G27A, G28A, G29A, G31A
DNA 1: CAATCTGAATTCCGGTCTCCC
DNA 2: TGGTGGCTACGACGGGATT
B6: CCACAUU (DNA:RNA)
RNA: GGGAGACCGGAAUUCAGAUUGUCCCCACAUUUUAAAUCCCGUCGUAGCCACCA
DNA 1: CAATCTGAATTCCGGTCTCCC
DNA 2: TGGTGGCTACGACGGGATT
B7: AAUACGC (DNA:RNA)
RNA: GGGAGACCGGAAUUCAGAUUGUCCAAUACGCUUAAAUCCCGUCGUAGCCACCA
DNA 1: CAATCTGAATTCCGGTCTCCC
DNA 2: TGGTGGCTACGACGGGATT
B8: UGGCCAU (DNA:RNA)
RNA: B6 RNA with C25U, C26G, A27G, A29C, U30A
DNA 1: CAATCTGAATTCCGGTCTCCC
DNA 2: TGGTGGCTACGACGGGATT
B9: GGCCAUU (DNA:RNA)
RNA: B6 RNA with C25G, C26G, A27C
DNA 1: CAATCTGAATTCCGGTCTCCC
DNA 2: TGGTGGCTACGACGGGATT
B10: UAACACA (DNA:RNA)
RNA: B6 RNA with C25U, C26A, U30C, U31A
DNA 1: CAATCTGAATTCCGGTCTCCC
DNA 2: TGGTGGCTACGACGGGATT
B11: CAAUCAA (DNA:RNA)
RNA: B7 RNA with A25C, U27A, A28U, G30A, C31A
DNA 1: CAATCTGAATTCCGGTCTCCC
DNA 2: TGGTGGCTACGACGGGATT
B12: UCUGAUU (DNA:RNA)
RNA: B6 RNA with C25U, A27U, C28G
DNA 1: CAATCTGAATTCCGGTCTCCC
DNA 2: TGGTGGCTACGACGGGATT
B13: GGACAUA (DNA:RNA)
RNA: B6 RNA with C25G, C26G, U31A
DNA 1: CAATCTGAATTCCGGTCTCCC
DNA 2: TGGTGGCTACGACGGGATT
B14: UCGCAUC (DNA:RNA)
RNA: B6 RNA with C25U, A27G, U31C
DNA 1: CAATCTGAATTCCGGTCTCCC
DNA 2: TGGTGGCTACGACGGGATT
B15: AGGCCUG (DNA:RNA)
RNA: B7 RNA with A26G, U27G, A28C, G30U, C31G
DNA 1: CAATCTGAATTCCGGTCTCCC
DNA 2: TGGTGGCTACGACGGGATT
B16: GAGGCGA (DNA:RNA)
RNA: B7 RNA with A25G, U27G, A28G, C31A
DNA 1: CAATCTGAATTCCGGTCTCCC
DNA 2: TGGTGGCTACGACGGGATT
B17: CAUCUGG (DNA:RNA)
RNA: B7 RNA with A25C, A28C, C29U, C31G
DNA 1: CAATCTGAATTCCGGTCTCCC
DNA 2: TGGTGGCTACGACGGGATT
B18: UGCACUA (DNA:RNA)
RNA: B7 RNA with A25U, A26G, U27C, G30U, C31A
DNA 1: CAATCTGAATTCCGGTCTCCC
DNA 2: TGGTGGCTACGACGGGATT
B19: AUCUAAU (DNA:RNA)
RNA: B6 RNA with C25A, C26U, A27C, C28U, U30A
DNA 1: CAATCTGAATTCCGGTCTCCC
DNA 2: TGGTGGCTACGACGGGATT
B20: UAGCAGC (DNA:RNA)
RNA: B7 RNA with A25U, U27G, A28C, C29A
DNA 1: CAATCTGAATTCCGGTCTCCC
DNA 2: TGGTGGCTACGACGGGATT
B21: ACAUUGC (DNA:RNA)
RNA: B7 RNA with A26C, U27A, A28U, C29U
DNA 1: CAATCTGAATTCCGGTCTCCC
DNA 2: TGGTGGCTACGACGGGATT
B22: CUCAUUU (DNA:RNA)
RNA: B6 RNA with C26U, A27C, C28A, A29U
DNA 1: CAATCTGAATTCCGGTCTCCC
DNA 2: TGGTGGCTACGACGGGATT
B23: GGUUUCA (DNA:RNA)
RNA: B7 RNA with A25G, A26G, A28U, C29U, G30C, C31A
DNA 1: CAATCTGAATTCCGGTCTCCC
DNA 2: TGGTGGCTACGACGGGATT
B24: CCGCAAA (DNA:RNA)
RNA: B6 RNA with A27G, U30A, U31A
DNA 1: CAATCTGAATTCCGGTCTCCC
DNA 2: TGGTGGCTACGACGGGATT
B25: UCUUAAG (DNA:RNA)
RNA: B6 RNA with C25U, A27U, C28U, U30A, U31G
DNA 1: CAATCTGAATTCCGGTCTCCC
DNA 2: TGGTGGCTACGACGGGATT
B26: GCCAUUU (DNA:RNA)
RNA: B6 RNA with C25G, A27C, C28A, A29U
DNA 1: CAATCTGAATTCCGGTCTCCC
DNA 2: TGGTGGCTACGACGGGATT
B27: GCACAUU (DNA:RNA)
RNA: B6 RNA with C25G
DNA 1: CAATCTGAATTCCGGTCTCCC
DNA 2: TGGTGGCTACGACGGGATT
B28: UGUAGGG (DNA:RNA)
RNA: B7 RNA with A25U, A26G, C29G, C31G
DNA 1: CAATCTGAATTCCGGTCTCCC
DNA 2: TGGTGGCTACGACGGGATT
B29: UGAUUAU (DNA:RNA)
RNA: B6 RNA with C25U, C26G, C28U, A29U, U30A
DNA 1: CAATCTGAATTCCGGTCTCCC
DNA 2: TGGTGGCTACGACGGGATT
B30: ACGUUAA (DNA:RNA)
RNA: B7 RNA with A26C, U27G, A28U, C29U, G30A, C31A
DNA 1: CAATCTGAATTCCGGTCTCCC
DNA 2: TGGTGGCTACGACGGGATT
B31: CGAGUGA (DNA:RNA)
RNA: B6 RNA with C26G, C28G, A29U, U30G, U31A
DNA 1: CAATCTGAATTCCGGTCTCCC
DNA 2: TGGTGGCTACGACGGGATT

Biological target: T1, RBFOX1 RRM RbFoxmut (Fox-RRM*)
Assay: EMSA; HiTS-Eq, 1 nM pool, 10 min; buffer printed only for the single-RNA assays: 10 mM Tris pH 7.5, 150 mM NaCl, 3.4 mM EDTA, 0.001% NP-40, 30 C
Settings: tags: His6 N-terminal (pET28a); label: 5' 32P
How it was run: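 Purified wild-type or mutant RbFox RRM at increasing concentrations was equilibrated with 1 nM of 5′-radiolabelled RNA carrying 7 randomized nucleotides for 10 min in 50 µL. Unbound RNA was separated by 8% native PAGE and sequenced. Relative association constants came from read-count changes of each RNA species compared with the control reaction, normalised to the cognate motif.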

Row | Binder | binding signal
1 | B1 | 0.131 KA relative to UGCAUGU
2 | B2 | 0.0803 KA relative to UGCAUGU
3 | B3 | 0.116 KA relative to UGCAUGU
4 | B4 | 0.0758 KA relative to UGCAUGU
5 | B5 | 0.0796 KA relative to UGCAUGU
6 | B6 | 0.109 KA relative to UGCAUGU
7 | B7 | 0.104 KA relative to UGCAUGU
8 | B8 | 0.089 KA relative to UGCAUGU
9 | B9 | 0.0688 KA relative to UGCAUGU
10 | B10 | 0.0818 KA relative to UGCAUGU
11 | B11 | 0.0625 KA relative to UGCAUGU
12 | B12 | 0.0624 KA relative to UGCAUGU
13 | B13 | 0.0852 KA relative to UGCAUGU
14 | B14 | 0.597 KA relative to UGCAUGU
15 | B15 | 0.19 KA relative to UGCAUGU
16 | B16 | 0.0608 KA relative to UGCAUGU

Row | Binder | binding signal
17 | B17 | 0.101 KA relative to UGCAUGU
18 | B18 | 0.11 KA relative to UGCAUGU
19 | B19 | 0.118 KA relative to UGCAUGU
20 | B20 | 0.0788 KA relative to UGCAUGU
21 | B21 | 0.126 KA relative to UGCAUGU
22 | B22 | 0.101 KA relative to UGCAUGU
23 | B23 | 0.196 KA relative to UGCAUGU
24 | B24 | 0.0843 KA relative to UGCAUGU
25 | B25 | 0.125 KA relative to UGCAUGU
26 | B26 | 0.0825 KA relative to UGCAUGU
27 | B27 | 0.107 KA relative to UGCAUGU
28 | B28 | 0.0751 KA relative to UGCAUGU
29 | B29 | 0.135 KA relative to UGCAUGU
30 | B30 | 0.123 KA relative to UGCAUGU
31 | B31 | 0.13 KA relative to UGCAUGU
